pIC50: −log10 of the molar value.
These compounds were tested against influenza A virus (IAV) PA-Nter fragment (amino acids 1-209) (Influenza A virus, UniProt P31343) (assay: FRET endonuclease activity assay).

With `O=C(NO)c1cc(NS(=O)(=O)Cc2cccc(Cl)c2)ccn1` as the compound, how does the pIC50 read?
Its pIC50 is 5.70.

How did the pIC50 turn out when `O=C(NO)c1cc(NS(=O)(=O)Cc2cccc(Br)c2)ccn1` was run?
Its pIC50 is 5.74.

How did the pIC50 turn out when `O=C(NO)c1cc(NS(=O)(=O)Cc2cc(Cl)cc(Cl)c2)ccn1` was run?
The pIC50 was 6.23.
